The RNAGym collection of RNA variant scans (doi:10.1101/gad.245936.114)
This sample is rich in variants without activity.

B1: tRNA (parent)
chain: CUCUCGGUAGCCAAGUUGGUUUAAGGCGCAAGACUUUAAUUUAUCACUACGAAAUCUUGAGAUCGGGCGUUCGACUCGCCCCCGGGAGAUUUUUUCCUCGAGCAA

Variants of: B1
Experiment: nonsense suppression (GFP-seq) (ratio to wild type); higher = more function; SUP4oc tRNA, yeast GFP reporter sort-seq
Summary of the method: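 Nonsense suppression (GFPSEQ) is the median GFP/RFP ratio of each sorting bin, weighted by the variant's estimated share of cells in that bin and expressed relative to the unmutated parent tRNA. Yeast strains carried genome-integrated variants of an ochre-suppressor tRNA from a library with ~3% random mutations, plus a galactose-driven GFP ochre reporter and RFP, and were grown in raffinose/galactose medium containing 80 mg/L adenine. Cells were sorted into GFP/RFP bins, each bin was Illumina-sequenced (phred ≥30), and variants were kept only with ≥100 reads and ≥30 cells.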

Nonsense suppression, 1.03:
U4C C29U

Nonsense suppression, 0.0348:
U4G A89U

Nonsense suppression, 0.813:
U4G G85C

Nonsense suppression, 1.12:
U4C G78U

Nonsense suppression, 0.161:
U4G C81U

Nonsense suppression, 0.0967:
U4G U71A

Nonsense suppression, 0.134:
U4G A24C

Nonsense suppression, 0.116:
U4G A23C G26U A62U G69C G84U

Nonsense suppression, 0.0398:
U4G A31G

Nonsense suppression, 0.0331:
C5A A60C

Nonsense suppression, 0.179:
U4C C34G C82U

Nonsense suppression, 0.0974:
U4G G7A

Nonsense suppression, ≤ 0.026:
U4C C12G
U4C C12G C64G G66C
U4C C27A
U4C C27A C72G
U4C C27G
U4C C29G
U4C C29G C34A C75G
U4C C29U C68G
U4C C34U C72U C77U A89U
U4C C68A
U4C C72G
U4C C77U
U4C G6U G26C C72G
U4C G7A A14C U21C C80A
U4C G7C A13G U76C
U4C G7C A33G
U4C G7C G84C A87U
U4C G7U A31G
U4C G10C A13U A31U
U4C G15C C27U A30U
U4C G18A
U4C G18A C34A C56A U57A C81U
U4C G18A G85C
U4C G19A A24U G66A A87U
U4C G19U G66U
U4C G19U U63G G65A
U4C G25A G26C U55A U70G
U4C G28C C34U
U4C G32A
U4C G32C U76G C79G
U4C G59A
U4C G61C U70G
U4C G65U
U4C G66A G67C C79A
U4C G67A U70C C72G
U4C G73U
U4C U8A C34A U35A
U4C U8G G65A
U4C U8G G78C
U4C U17A G61C
U4C U17G G67A G86A
U4C U20C G86U
U4C U21G U71C G78U
U4C U35A C83A
U4C U35C G69C
U4C U55A G67A C79G C83G
U4C U58C A60U G69U G88A
U4C U58G G61A A89G
U4C U70A C80A
U4G A9C C64A A74C
U4G A14G
U4G A14U G25U A33U A89C
U4G A23C
U4G A23C U35G G65C
U4G A30U A31C U63C G65C
U4G A30U U35A
U4G A31U C81U
U4G A33G C34U G86C
U4G A54C U55G U70G
U4G A54G
U4G A60C G85A
U4G C5G G26A G73A G85A
U4G C11G A89U
U4G C12U G66C
U4G C27G
U4G C29A A74U U76A C79G
U4G C34A
U4G C34U G85U
U4G C72U
U4G C79A
U4G C80G
U4G C83G
U4G G6A U8G A9U
U4G G6C U8A G78A
U4G G7A C12A
U4G G7C C27U U71A A74U C75G
U4G G7U C27A
U4G G7U U8A G84C
U4G G10U C34U U57C
U4G G10U U55A
U4G G15A C72U
U4G G18A
U4G G18C
U4G G18C G85U
U4G G18U G25U G88C A89U
U4G G19A A23C A30G A62U
U4G G19A G26U
U4G G19A U20G
U4G G19U G61U C82A
U4G G25A U58G G66A A74G
U4G G25U G26C G32A G69C
U4G G32A
U4G G59U C75G
U4G G59U C75U C80A
U4G G61A G67U C68G C81G G85U
U4G G67A C82U G88C
U4G G67U C77G G85A
U4G G67U C77U G85A
U4G G78C A89U
U4G G78U G84U
U4G U8A C75U
U4G U8A G19A U57C
U4G U8A G32U U55G
U4G U17C U21A G67U
U4G U17G C27A G67U C68A C81A C82A
U4G U20C C75A G84U
U4G U20C G61C G67C U76C G88C
U4G U22C G28U
U4G U35G U55C
U4G U58C C80A
U4G U58G
U4G U71C
C5A
C5A A9C A24G G85A
C5A A9U
C5A A9U A24C U55G C56A
C5A A9U U35A U55C
C5A A13C A30C A33G
C5A A13C U58A C81A
C5A A13G A31U G67A
C5A A14C A24C G61U A87C
C5A A14U A30U U57C
C5A A14U A33C U55C
C5A A14U A60G C79G
C5A A24C A31G G86A
C5A A24C G67A
C5A A24G U55A C64U U70G
C5A A30C
C5A A31C
C5A A31G G73A
C5A A33U G84C
C5A A54G
C5A A60G G67U U70C G78A C81A
C5A A62C

Nonsense suppression, 1.09:
U4C G86A

Nonsense suppression, 0.745:
U4C C12U

Nonsense suppression, 0.882:
U4G U16C

Nonsense suppression, 0.0386:
U4G A30U

Nonsense suppression, 1.25:
U4C G61A

Nonsense suppression, 0.216:
U4G U22A

Nonsense suppression, 0.804:
U4G G61U

Nonsense suppression, 0.0794:
U4G A87C

Nonsense suppression, 0.0369:
U4G U57G

Nonsense suppression, 1.06:
U4C G78C

Nonsense suppression, 0.0997:
U4G G78U

Nonsense suppression, 0.0337:
U4C U57G

Nonsense suppression, 1.16:
U4G

Nonsense suppression, 0.0649:
U4C C34G

Nonsense suppression, 0.0332:
U4G A33G

Nonsense suppression, 0.651:
U4C C80U

Nonsense suppression, 0.214:
U4C G15A U21A

Nonsense suppression, 0.0898:
U4G G73U

Nonsense suppression, 0.552:
U4C U22A G86A

Nonsense suppression, 0.0269:
C5A A24C

Nonsense suppression, 0.0955:
U4G C5U
